Reference: PubChem BioAssay (NCATS)
“And” between values parts separate entries of the source, which are not always exact repeats. Equal values may be shown once. The shares of active, inactive and inconclusive entries below differ from those in the screen. Potencies of inconclusive entries are doubtful fits and often do not repeat. The source made the active and inactive calls. Calls follow the shape of the dose curve; as a rule, active = well fitted curve in the direction sought with a large enough effect; inconclusive = small, poorly fitted or top-dose-only effect, or another doubt; inactive = no such curve, though single readings can be large; an effect the other way counts as inactive or inconclusive.

What was measured:
[1] = Viability qHTS for spleen associated tyrosine kinase inhibitor (SYKi) naive MV4-11 cells (AID 1963823); conditions: MV4-11 AML viability, CellTiter-Glo luminescence, 72 h; viability (% of control): at 45 µM (top of the series); also: nearly all actives have a fitted effect of over 40% in size
In short: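 Read-out: CellTiter-Glo luminescence. Exposure: 72 hr, 37 C, 5% CO2, 95% humidity. Cells: MV4-11 without SYK inhibitor history, 500/well, qHTS format.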

[2] = Viability qHTS for spleen associated tyrosine kinase inhibitor (SYKi) drug resistant MV4-11 cells (AID 1963824); also: nearly all actives have a fitted effect of over 35% in size
In short: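 SYK-inhibitor-resistant MV4-11 AML cells were seeded at 500 per well onto compound and cultured 72 hours (37 °C, 5% CO2). CellTiter-Glo was then added, and after 10 min at room temperature, luminescence gave viability.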

[3] = Quantitative highthroughput screen to assess conditional lethalithy of NOMO1 cells grown in Human Plasma-Like Medium with dialyzed fetal bovine serum (HPLM+ds) (AID 1963878); conditions: NOMO1 AML cells in HPLM+ds, CellTiter-Glo viability, 48 h; viability: at 45.8 µM (top of the series); also: nearly all actives have a fitted effect of over 35% in size;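 as to Viability: 100% = DMSO wells and 0% = empty wells on each plate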
In short: (§1)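 Each medium arm—HPLM with 10% dialyzed FBS, or RPMI1640 with 5 mM glucose and 10% untreated or dialyzed FBS—was screened against an 11-point, 3-fold compound titration for 48 h at 37 °C, with CellTiter-Glo luminescence as endpoint.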

[4] = Quantitative highthroughput screen to assess conditional lethalithy of SEM cells grown in Human Plasma-Like Medium with dialyzed fetal bovine serum (HPLM+ds) (AID 1963882); also: nearly all actives have a fitted effect of over 35% in size
In short: as §1

[5] = Quantitative highthroughput screen to assess conditional lethalithy of SEM cells grown in RPMI1640 with dialyzed fetal bovine serum (RPMI+ds) (AID 1963884); conditions: SEM B-ALL cells, RPMI+dialyzed FBS, CellTiter-Glo viability, 48 h; viability: at 45.8 µM (top of the series); also: nearly all actives have a fitted effect of over 35% in size;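 as to Viability: 100% = DMSO control wells and 0% = empty wells without cells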
In short: as §1

[6] = Cellular viability qHTS for adrenocortical cancer (ACC) cell line SW-13 (AID 1963989); conditions: SW-13 ACC cells viability, CellTiter-Glo, 48 h; activity (max response): stronger effect = lower value; also: nearly all actives have a fitted effect of over 65% in size;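 as to activity (max response): cells grown in serum-free medium with ITS supplement; % is scaled to controls: 0 for no effect and ±100 for the full control effect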
In short: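 SW-13 cells in ITS-supplemented serum-free DMEM were plated overnight, then exposed for 48 h at 37C to compound titrations (up to 46 uM final). Viability was read by CellTiter-Glo luminescence; four-parameter logistic fits gave IC50 and efficacy.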

[7] = Cellular viability qHTS for adrenocortical cancer (ACC) cell line NCI-H295R (AID 1963990); conditions: CellTiter-Glo ATP luminescence, 48 h; activity change, negative = viability loss: at 46.1 µM (top of the series); also: nearly all actives have a fitted effect of over 60% in size;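 as to activity change, negative = viability loss: 0% = DMSO only wells and -100% = full killing with cytotoxic reference compound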
In short: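 Luminescent ATP read-out (CellTiter-Glo, 20 min RT) after 48 h drug exposure of NCI-H295R cells; a titration up to 46 uM final. Data normalized to doxorubicin (100% inhibition) and DMSO (0%); 4-parameter fit gives IC50, max response.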

[8] = Quantitative highthroughput screen to assess conditional lethalithy of P12 Ichikawa cells grown in RPMI1640 with dialyzed fetal bovine serum (RPMI+ds) (AID 1963880); conditions: Potency: P12-Ichikawa viability; also: nearly all actives have a fitted effect of over 35% in size;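 as to Viability: 100% = DMSO wells and 0% = empty wells on each plate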
In short: as §1

[9] = Quantitative highthroughput screen to assess conditional lethalithy of SEM cells grown in RPMI1640 with unreated serum (RPMI+s) (AID 1963883); conditions: SEM B-ALL cells, CellTiter-Glo viability, 48 h; viability: at 45.8 µM (top of the series); also: nearly all actives have a fitted effect of over 35% in size;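 as to Viability: 100% = DMSO wells and 0% = empty wells without cells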
In short: as §1

[10] = Quantitative highthroughput screen to assess conditional lethalithy of P12 Ichikawa cells grown in RPMI1640 with untreated serum (RPMI+s) (AID 1963881); conditions: Potency: viability; also: nearly all actives have a fitted effect of over 35% in size;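 as to Viability: 100% = DMSO wells and 0% = empty wells without cells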
In short: as §1
Potency is read from the fitted curve at half-maximal effect; tags tell the direction and shape of the fitted curve.

Compound | Potency [1] | Potency [2] | Potency [3] | Potency [4] | Potency [5] | Potency [6] | Potency [7] | Potency [8] | Potency [9] | Potency [10] | viability [3] | activity (max response) [6]
O=C(C1CC1)N1CC[C@@H](Cn2c(-c3ccc(-c4ccc5occc5c4)cc3)nc3cnccc32)C1 | inconclusive: 16.6 µM [cytotoxic, partial curve] | active: 14.8 µM | inconclusive: 33.2 µM [cytotoxic, single point] | inactive | inactive | inconclusive: 447 nM [cytotoxic, partial curve, poor fit] | inconclusive: 35.5 µM [cytotoxic, single point] | – | – | – | – | –
CC1=C(CC(=O)O)c2cc(F)ccc2C1=Cc1ccc(S(C)=O)cc1 (stereo not given) | inconclusive: 20.9 µM [cytotoxic, partial curve] | inconclusive: 23.5 µM [cytotoxic, partial curve] | inactive | – | inconclusive: 10.5 µM [cytotoxic, partial curve, poor fit] | – | – | inactive | inactive | – | – | –
CC(C)(C)c1cc(NC(=O)Nc2ccc(-c3cn4c(n3)sc3cc(OCCN5CCOCC5)ccc34)cc2)no1 | inactive and inconclusive: 1.9 nM [cytotoxic, full curve] | inconclusive: 9.2 nM [cytotoxic, full curve] and inconclusive: 3.7 nM [cytotoxic, full curve] | inconclusive: 4.69 µM [rising, partial curve, poor fit] | inconclusive: 0.0033 µM [cytotoxic, full curve] | inconclusive: 0.003 µM [cytotoxic, full curve] | – | – | inactive | inconclusive: 0.0047 µM [cytotoxic, full curve] | – | – | –
Cc1nn(C)c2c1C(c1ccc(C(F)(F)F)cc1)C(C#N)=C(N)O2 (stereo not given) | inconclusive: 20.6 µM [cytotoxic, partial curve] | inconclusive: 16.4 µM [cytotoxic, partial curve] | inactive | inconclusive: 37.1 µM [cytotoxic, single point] | – | – | – | – | inconclusive: 20.9 µM [cytotoxic, partial curve, poor fit] | inactive | – | –
NCc1c[nH]c(=S)n1[C@H]1CCc2c(F)cc(F)cc2C1 | inconclusive: 18.6 µM [cytotoxic, partial curve] | inconclusive: 37.2 µM [cytotoxic, single point] | inconclusive: 4.18 µM [cytotoxic, partial curve, poor fit] | inconclusive: 23.5 µM [cytotoxic, single point] | inconclusive: 26.4 µM [cytotoxic, single point] | – | – | inconclusive: 29.6 µM [cytotoxic, single point] | inconclusive: 33.2 µM [cytotoxic, single point] | – | – | –
NC(=O)c1ccc(I)c([N+](=O)[O-])c1 | inconclusive: 20.9 µM [cytotoxic, partial curve] | inconclusive: 20.9 µM [cytotoxic, partial curve] | inactive | inactive | inactive | – | – | inactive | – | – | – | –
CC(C)(C(=O)NCC(F)(F)C(F)(F)F)C(=O)N[C@@H]1C(=O)Nc2ccccc2-c2ccccc21 | inconclusive: 23.5 µM [cytotoxic, partial curve, poor fit] | inconclusive: 29.5 µM [cytotoxic, partial curve, poor fit] | inconclusive: 1.32 µM [cytotoxic, full curve] | inconclusive: 33.2 µM [cytotoxic, single point] | inconclusive: 33.2 µM [cytotoxic, single point] | – | – | inconclusive: 2.64 µM [cytotoxic, full curve] | – | – | – | –
O=C1N(c2ccccc2)c2ccccc2C1(Cc1ccncc1)Cc1ccncc1 | inactive and inconclusive: 29.5 µM [cytotoxic, single point] | inactive and inconclusive: 18.6 µM [cytotoxic, partial curve] | inactive | – | inactive | – | – | inconclusive: 0.526 µM [cytotoxic, full curve, poor fit] | inconclusive: 0.0935 µM [cytotoxic, full curve, poor fit] | inconclusive: 0.935 µM [cytotoxic, full curve, poor fit] | – | –
Cc1oc(=O)oc1CN1CCN(c2cc3c(cc2F)c(=O)c(C(=O)O)c2n3C(C)S2)CC1 (stereo not given) | inconclusive: 13.3 µM [cytotoxic, partial curve] and inconclusive: 23.5 µM [cytotoxic, single point] | inconclusive: 16.8 µM [cytotoxic, single point] | inconclusive: 23.5 µM [cytotoxic, partial curve, poor fit] | inconclusive: 0.0012 µM [rising, full curve] | inconclusive: 0.0013 µM [rising, full curve] | – | – | inactive | inconclusive: 0.0015 µM [rising, full curve] | – | – | –
COc1ccc(-c2nc3ccc(C4=NNC(=O)CC4C)cc3[nH]2)cc1 (stereo not given) | inconclusive: 16.8 µM [cytotoxic, partial curve] | inconclusive: 18.8 µM [cytotoxic, partial curve] | inactive | inconclusive: 16.6 µM [cytotoxic, partial curve, poor fit] | – | – | active: 6.51 µM and active: 14.1 µM | inactive | inactive | inactive | – | –
CC(C)OC(=O)C(C(=O)OC(C)C)=C1SC=CS1 | inconclusive: 26.6 µM [cytotoxic, single point] and inconclusive: 29.5 µM [cytotoxic, partial curve] | inconclusive: 26.6 µM [cytotoxic, single point] and inconclusive: 20.9 µM [cytotoxic, partial curve] | inconclusive: 5.9 µM [cytotoxic, partial curve, poor fit] | inconclusive: 11.8 µM [cytotoxic, single point] | inactive | – | inconclusive: 32.6 µM [cytotoxic, single point] and inactive | – | inconclusive: 9.35 µM [cytotoxic, single point] | inactive | – | –
Nc1nc(F)nc2c1ncn2[C@@H]1O[C@H](CO)[C@@H](O)[C@@H]1O | active: 10.5 µM and active: 16.8 µM and active: 14.6 µM | inconclusive: 29.9 µM [cytotoxic, single point] | active: 0.418 µM | active: 0.0935 µM | active: 0.0743 µM | inconclusive: 22.4 µM [cytotoxic, partial curve] and inconclusive: 25.9 µM [cytotoxic, partial curve, poor fit] | inconclusive: 12.6 µM [cytotoxic, partial curve] and inconclusive: 11.6 µM [cytotoxic, partial curve] | – | active: 0.105 µM | – | – | –
Cc1ccn(-c2ccc(-c3ncco3)cc2)c(=O)c1-c1ccc2nc(N)ncc2c1 | active: 1.64 µM | active: 2.31 µM | inactive | inconclusive: 2.96 µM [cytotoxic, full curve] | active: 1.87 µM | – | inactive | – | inconclusive: 3.32 µM [cytotoxic, full curve] | inconclusive: 20.9 µM [cytotoxic, partial curve, poor fit] | – | –
CCCc1cc(C(N)=S)ccn1 | inactive and inconclusive: 11.8 µM [cytotoxic, single point] | inconclusive: 11.8 µM [cytotoxic, single point] | – | – | – | – | – | – | – | inactive | inconclusive: 68.2% [cytotoxic] | inactive: 7.42% and inactive: -7.33%
CC(C)Cn1cnc2c(N)nc3ccccc3c21 | inactive and inconclusive: 7.23 µM [cytotoxic, partial curve] | inconclusive: 7.23 µM [cytotoxic, partial curve] | inactive | inactive | – | – | inconclusive: 10.1 µM [cytotoxic, single point] | – | – | inactive | – | –
C=C1C(=CC=C2CCC[C@]3(C)[C@@H]([C@H](C)C=C[C@H](C)C(C)C)CC[C@@H]23)C[C@@H](O)C[C@@H]1O | inconclusive: 4.68 µM [cytotoxic, full curve] | inconclusive: 8.33 µM [cytotoxic, full curve] | active: 8.33 µM | inconclusive: 18.7 µM [cytotoxic, partial curve] | inconclusive: 20.9 µM [cytotoxic, partial curve] | – | – | – | inconclusive: 16.6 µM [cytotoxic, partial curve] | – | – | –
O=C(Nc1c(Cl)cncc1Cl)c1ccc(OC(F)F)c(OCC2CC2)c1 | inconclusive: 16.6 µM [cytotoxic, partial curve] | inconclusive: 20.9 µM [cytotoxic, partial curve] | inactive | – | inactive | – | – | inactive | – | inactive | – | –
CCCn1c(=O)c2[nH]c(-c3cnn(Cc4cccc(C(F)(F)F)c4)c3)nc2n(CC)c1=O | inactive and inconclusive: 2.63 µM [cytotoxic, partial curve] | inconclusive: 10.5 µM [cytotoxic, partial curve] | inconclusive: 2.64 µM [cytotoxic, full curve] | – | inactive | – | – | active: 4.18 µM | – | active: 0.418 µM | – | –
